Data from PubChem BioAssay AID1347055 (National Center for Advancing Translational Sciences (NCATS), 2019).
Out of some 54,000 compounds screened, about 120 (0.22%) were called active. The inconclusive results got no clear call from the source; some entries with a clear call stand among them for comparison. Calls follow the shape of the dose curve; as a rule, active = well fitted inhibition curve with a large enough effect; inconclusive = small, poorly fitted or top-dose-only effect, or effect the other way; inactive = flat fitted curve, though single readings scatter. No potency is given beside an inconclusive call; the fits are too rough.

target: Fumarate hydratase, mitochondrial (Homo sapiens) (UniProt P07954); test: Identification of activators of human fumarate hydratase by quantitative high-throughput screening; conditions: FH coupled MDH/diaphorase resazurin fluorescence, 15 min; activity change, negative = inhibition: at 79.9 µM (top of the series); also: the screen sought activators but most active calls are inhibition curves; nearly all actives have a fitted effect of over 45% in size
% is scaled to controls: 0 for no effect and ±100 for the full control effect; potency is read from the fitted curve at half-maximal effect; tags tell the direction and shape of the fitted curve.

Sequence of UniProt P07954 (P07954 whole entry, looked up): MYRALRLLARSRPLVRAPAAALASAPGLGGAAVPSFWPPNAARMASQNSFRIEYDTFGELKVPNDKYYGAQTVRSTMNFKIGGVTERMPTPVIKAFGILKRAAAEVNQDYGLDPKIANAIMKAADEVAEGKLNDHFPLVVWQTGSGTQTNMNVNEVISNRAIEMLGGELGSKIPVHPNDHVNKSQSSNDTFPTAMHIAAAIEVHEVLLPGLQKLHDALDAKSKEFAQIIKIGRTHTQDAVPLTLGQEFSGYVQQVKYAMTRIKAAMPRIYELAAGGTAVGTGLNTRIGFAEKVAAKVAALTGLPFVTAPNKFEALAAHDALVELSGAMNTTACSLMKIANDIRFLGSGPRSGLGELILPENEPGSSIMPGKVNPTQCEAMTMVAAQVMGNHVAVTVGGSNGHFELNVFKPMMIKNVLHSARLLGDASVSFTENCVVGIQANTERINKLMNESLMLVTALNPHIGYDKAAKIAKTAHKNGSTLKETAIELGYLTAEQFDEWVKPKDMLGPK

| SMILES | Potency | activity change, negative = inhibition |
| --- | --- | --- |
| COc1cc(Nc2nc(-c3ccc(OC)c(OC)c3)nc3ccccc23)cc(OC)c1 | inconclusive [inhibitor, single point] | – |
| CN(C)c1ccc(CNC(=O)c2ccc3nc(Cc4ccccc4)oc3c2)cc1 | inconclusive [inhibitor, full curve, poor fit] | – |
| O=C(O)CCn1ccc2cc(S(=O)(=O)N3CCCCCC3)ccc21 | inconclusive [activator, single point] | – |
| COc1ccc(CC(=O)NCC(c2cccs2)S(=O)(=O)c2ccc(F)cc2)cc1 (configuration not stated) | inactive | – |
| CCOC(=O)c1ccccc1NC(=O)c1c(C)oc2ncnc(N3CCOCC3)c12 | inactive | – |
| CCOC(=O)C1=C(CN2CCN(c3ccc(C)cc3C)CC2)NC(=O)NC1c1ccc(OC)cc1 (configuration not stated) | – | inconclusive: -38.9% [inhibitor] |
| CC[n+]1c(/C=C/C=C2/N(C)c3ccccc3C2(C)C)sc2ccccc21 | inconclusive [inhibitor, single point] | – |
| CCc1ccc(CCOc2ccc(CC3SC(=O)NC3=O)cc2)nc1 (configuration not stated) | inactive | – |
| Cc1ccc(NC(=O)c2ccc(C)c(S(=O)(=O)N3CCCCCC3)c2)cc1 | inconclusive [inhibitor, partial curve] | – |
| CC(C)(C)c1ccc(/C=C/C(=O)Nc2ccc3c(c2)OCCO3)cc1 | inconclusive [inhibitor, single point] | – |
| CCOc1ccc(NC(=O)CSc2nc3ccsc3c(=O)n2CCC(C)C)cc1 | inactive | – |
| CCc1ccc(-c2[nH]nc3nc(-c4cc(OC)ccc4OC)cc(C(=O)O)c23)cc1 | inactive | – |
| COC(=O)c1sccc1S(=O)(=O)N(CC(=O)Nc1cc(F)ccc1F)c1ccc(C)c(C)c1 | inconclusive [inhibitor, partial curve] | – |
| O=C(NCCc1ccc(Cl)cc1)c1cc2c(s1)-c1ccccc1OC2 | inactive | – |
| Cc1ccc(N(CC(=O)N2CCN(c3cccc(C)c3C)CC2)S(=O)(=O)c2c(C)nn(C)c2C)cc1 | inconclusive [inhibitor, single point] | – |
| CCOC(=O)c1cc2c(=O)n3ccccc3nc2n(C(C)C)c1=NC(=O)c1c(-c2c(F)cccc2Cl)noc1C | inconclusive [inhibitor, partial curve, poor fit] | – |
| O=C1CC(c2ccc(Br)cc2)c2c(ccc3ccccc23)N1 (configuration not stated) | inconclusive [inhibitor, single point] | – |
| CC(=O)N1CCCc2cc(S(=O)(=O)N3CCCC(C(=O)Nc4ccc(C)c(F)c4)C3)ccc21 (configuration not stated) | inconclusive [inhibitor, single point] | – |
| COc1ccc(NC(=O)CCc2c(C)nc3cc(-c4cccc(F)c4)nn3c2C)cc1Cl | inactive | – |
| CC(=O)Nc1ccc2nc(SCCOc3ccccc3Cl)sc2c1 | inconclusive [inhibitor, single point] | – |
| COC(=O)C1=CO[C@@H](O[C@@H]2O[C@H](CO)[C@@H](O)[C@H](O)[C@H]2O)[C@@H]2[C@@H](C)[C@@H](O)C(O)[C@H]12 (some centres not stated) | inactive | – |

| SMILES | Potency | activity change, negative = inhibition |
| --- | --- | --- |
| CCOc1ccc(S(=O)(=O)N2CCC(n3c(C)nc4cccnc43)CC2)cc1 | inactive | – |
| CSc1ccc(CCNC(=O)c2ccc3c(c2)nc2n3CCCCC2)cc1 | inconclusive [inhibitor, partial curve] | – |
| Oc1c(C(c2ccccc2)N2CCN(c3cccc(Cl)c3)CC2)sc2nc(-c3ccco3)nn12 (configuration not stated) | – | inconclusive: -47.7% [inhibitor] |
| O=C(NCCn1cc(SCc2ccccc2F)c2ccccc21)c1cccs1 | inconclusive [inhibitor, single point] | – |
| Cc1ccc(NC(=O)c2cccc(N3CCCS3(=O)=O)c2)cc1C | inactive | – |
| CCc1ccc(C(c2ccccc2)c2c[nH]c3ccc(C)cc23)s1 (configuration not stated) | inconclusive [inhibitor, single point] | – |
| Cc1nc(NC(=O)N2CCCC2C(N)=O)sc1-c1ccnc(C(C)(C)C(F)(F)F)c1 (configuration not stated) | inactive | – |
| CNS(=O)(=O)c1cc(-c2nn3c(C)nnc3c3ccccc23)ccc1C | inconclusive [inhibitor, single point] | – |
| Cc1ccccc1NC(=O)c1c(NC(=O)c2ccncc2)sc2c1CCC(C(C)(C)C)C2 (configuration not stated) | inconclusive [inhibitor, single point] | – |
| C[C@@H]1O[C@@H](O[C@H]2[C@H](O)[C@@H](C(=O)O)O[C@@H](O[C@H]3CC[C@@]4(C)C(CC[C@]5(C)C4CC=C4C6CC(C)(C)CC[C@]6(C(=O)O)CC[C@]45C)C3(C)C)[C@@H]2O[C@@H]2O[C@H](CO)[C@@H](O)[C@H](O)[C@H]2O)[C@H](O)[C@H](O)[C@H]1O (some centres not stated) | inactive | – |
| O=C(NCCc1ccc(Cl)cc1)c1ccc(Cn2c(=O)[nH]c3ccccc3c2=O)cc1 | inactive | – |
| COc1ccc2[nH]cc(CCNC(=O)Nc3cccc(F)c3)c2c1 | inactive | – |
| COc1ccc(OCc2ccc(-c3nc(C#N)c(NCc4ccccc4)o3)o2)cc1 | inactive | – |
| CCOC(=O)Cc1ccc(NC(=O)n2ncc3cc(Cl)ccc32)cc1 | inconclusive [inhibitor, single point] | – |
| CC[C@]1(O)CC2CN(CCc3c([nH]c4ccccc34)[C@@](C(=O)OC)(c3cc4c(cc3OC)N(C)[C@H]3[C@@](O)(C(=O)OC)[C@H](OC(C)=O)[C@]5(CC)C=CCN6CC[C@]43[C@@H]65)C2)C1 (some centres not stated) | inactive | – |
| COC(=O)c1c(NC(=O)CCCOc2ccc(C(C)(C)C)cc2)sc2c1C(C(=O)OC)CC2 (configuration not stated) | inconclusive [inhibitor, partial curve, poor fit] | – |
| COc1cccc(C(=O)NCCc2csc(-c3ccc(Cl)cc3)n2)c1 | inconclusive [inhibitor, partial curve, poor fit] | – |
| CCOC(=O)C1CCN(C(c2ccc(SC)cc2)c2c(O)cc(C)n(Cc3ccco3)c2=O)CC1 (configuration not stated) | – | inconclusive: -66.1% [inhibitor] |
| COc1cc(C2NC(=O)c3c(sc4c3CCN(C)C4)N2)cc(Br)c1OC(=O)c1ccc(C)cc1 (configuration not stated) | inconclusive [inhibitor, single point] | – |
| COC(=O)c1cc2sc(Cl)cc2n1Cc1c(C)cc(C)cc1C | inactive | – |
| COc1ccc(-c2cc(C)no2)cc1S(=O)(=O)Nc1c(C)cc(C)cc1C | inconclusive [inhibitor, partial curve, poor fit] | – |

| SMILES | Potency | activity change, negative = inhibition |
| --- | --- | --- |
| Cc1ccc(C)c(S(=O)(=O)c2cn(C)c3cc(N4CCCCC4C)c(F)cc3c2=O)c1 (configuration not stated) | inconclusive [inhibitor, partial curve, poor fit] | – |
| Cc1ccc(-c2cn3nc(N4CCCC(C(=O)Nc5ccc(F)cc5)C4)sc3n2)cc1 (configuration not stated) | inconclusive [inhibitor, partial curve, poor fit] | – |
| Cc1ncc([N+](=O)[O-])n1CC(O)CN1CCOCC1 (configuration not stated) | inactive | – |
| COc1ccccc1NC(=O)C(C)Sc1nnc2ccc3ccccc3n12 (configuration not stated) | inconclusive [inhibitor, partial curve] | – |
| CCCCOc1ccc(C(=O)NCCc2csc(-c3cccc(F)c3)n2)cc1 | inconclusive [inhibitor, single point] | – |
| Cc1cccc(C(=O)Nc2ccc(-c3nc4ncccc4o3)cc2C)c1 | inconclusive [inhibitor, single point] | – |
| C=C1[C@H]2[C@H](O[C@@H]3O[C@H](COC(=O)/C=C/c4cc(OC)c(O)c(OC)c4)[C@@H](O)[C@H](O)[C@H]3O)OC=C(C(=O)O)[C@H]2C[C@@H]1O | inactive | – |
| O=C(CC1N=C2c3ccccc3N=C(SCC(=O)Nc3cccc(Cl)c3)N2C1=O)NCc1cccs1 (configuration not stated) | inconclusive [inhibitor, full curve, poor fit] | – |
| Cc1ccc2c(=O)cc(C(=O)Nc3nnc(CC(C)C)s3)oc2c1C | inconclusive [inhibitor, partial curve] | – |
| Oc1c(C(c2ccc(Cl)cc2Cl)N2CCOCC2)sc2nc(-c3ccco3)nn12 (configuration not stated) | inactive | – |
| COC(=O)C1=C(C)NC(COC(N)=O)=C(C(=O)OC(C)C)C1c1cccc(Cl)c1Cl (configuration not stated) | inconclusive [inhibitor, single point] | – |
| CCCCCCCCC(=O)N[C@H](CN1CCCC1)[C@H](O)c1ccc2c(c1)OCCO2 | inactive | – |
| COc1ccc(CNS(=O)(=O)c2cc(C(=O)Nc3cc(Cl)cc(Cl)c3)ccc2F)cc1 | – | inconclusive: -45.6% [inhibitor] |
| CCOc1ccccc1NC(=O)C(Cc1ccccc1)NS(=O)(=O)c1ccc(Br)s1 (configuration not stated) | inconclusive [inhibitor, single point] | – |
| Cc1ccc(Cl)cc1N1CCN(C(=O)c2cnc(N3CCOCC3)c3ccccc23)CC1 | inconclusive [inhibitor, partial curve, poor fit] | – |
| CN1CCN(C(CNC(=O)c2cccc(F)c2)c2ccc3c(c2)OCO3)CC1 (configuration not stated) | inconclusive [inhibitor, full curve, poor fit] | – |
| CCc1ccc(C2c3c(-c4ccccc4O)n[nH]c3C(=O)N2Cc2ccncc2)cc1 (configuration not stated) | inconclusive [inhibitor, single point] | – |
| COc1cc(OC)cc(C(=O)Oc2c(Sc3ccccc3)c(C)nn2C(C)(C)C)c1 | inconclusive [inhibitor, full curve] | – |
| Cc1ccc(OCC(=O)Nc2ccc(S(=O)(=O)Nc3cc(C)nc(C)n3)cc2)c(Br)c1 | inconclusive [inhibitor, partial curve] | – |
| O=C(CCSc1nc(-c2ccco2)cc(C(F)(F)F)n1)Nc1cccc(O)c1 | inconclusive [inhibitor, single point] | – |
